Laboratory results published in PubChem BioAssay AID686978 (National Center for Advancing Translational Sciences (NCATS), 2013).
In all, about 420,000 compounds went through this assay and about 64,000 (15%) were called active. Inconclusive means that the source gave no clear call. Such entries were picked first, then a sample of the others. Calls come from the whole dose curve; as a rule, active = well fitted inhibition curve with a large enough effect; inconclusive = small, poorly fitted or top-dose-only effect; inactive = flat fitted curve, though single readings scatter. Potencies of inconclusive entries are left out as doubtful fits.

Assay: qHTS for Inhibitors of human tyrosyl-DNA phosphodiesterase 1 (TDP1): qHTS in cells in absence of CPT; note: nearly all actives have a fitted effect of over 55% in size
Conditions: DT40 Tdp1-/- hTDP1 cells, no CPT, ATP luminescence, 48 h; activity change, negative = growth inhibition: at 46.2 µM (top of the series) unless noted
Method in brief: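 DT40 Tdp1-/-;hTDP1 cells, no CPT (DMSO vehicle only), 400 cells/well; compounds pin-transferred; ≥48 hr, 37 °C; CellTiter-Glo 30 min RT dark, luminescence read.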
% is set by controls: 0 for no effect and ±100 for the full control effect; potency is the fitted concentration of half-maximal effect; tags give direction and shape of the fitted curve.

Row | SMILES | Potency | activity change, negative = growth inhibition
1 | S=c1[nH]nc(C2CCCCC2)n1Cc1ccccc1 | inconclusive [inhibitor, single point] | –
2 | CCOC(=O)c1[nH]c2ccc(C)cc2c1NC(=O)CN1CCCCC1 | inconclusive [inhibitor, partial curve] | –
3 | COc1cc2c(cc1OC)C(COc1cccc(C(F)(F)F)c1)NCC2 (configuration not stated) | inconclusive [inhibitor, single point] | –
4 | CN1CCSc2ccc(C(=O)Nc3cccc(F)c3)cc21 | inconclusive [inhibitor, single point] | –
5 | O=C1OCCC1Sc1nnc(-c2ccccc2)o1 (configuration not stated) | inactive | –
6 | CN(Cc1ccco1)c1nc(-c2cccc(C#N)c2)nc2ccccc12 | inconclusive [inhibitor, single point] | –
7 | O=C1CC(c2ccccc2)=C(c2ccccc2)C1c1ccccc1 (configuration not stated) | inconclusive [inhibitor, single point] | –
8 | COc1cccc(OC)c1NC(=O)c1ccc(-c2cc(Cl)ccc2Cl)o1 | inconclusive [inhibitor, single point] | –
9 | O=C(Nc1cc(N2CCCCC2)ncn1)c1ccc(F)cc1 | inconclusive [inhibitor, single point] | –
10 | COc1ccc(NC(=O)CSc2nnnn2C)c([N+](=O)[O-])c1 | inactive | –
11 | CCOc1cc(/C=N/Nc2nc(=O)[nH]nc2C)ccc1O | inactive | –
12 | COC(=O)c1sc2cccc(F)c2c1S(=O)(=O)N1CCN(c2ccc(F)cc2)CC1 | inconclusive [inhibitor, single point] | –
13 | Cc1nc2nc(SCC(=O)NCCc3ccc(Cl)cc3)nn2c(C)c1Cc1ccccc1 | inconclusive [inhibitor, single point] | –
14 | O=C(N/N=C/c1ccc([N+](=O)[O-])o1)c1ccc2c(c1)OCO2 | active: 5.8 µM | –
15 | O=C(Nc1ccncc1)c1cc(-c2ccccc2)nc2ccccc12 | active: 20.6 µM | –
16 | Cn1c(N)c(C(=O)COc2ccc(Cl)cc2Cl)c(=O)n(C)c1=O | inconclusive [inhibitor, partial curve, poor fit] | –
17 | CC(=O)c1cc(C(=O)Nc2cc(C)cc(C)c2)c2ccccn12 | inconclusive [inhibitor, single point] | –
18 | Nc1[nH]c(C(=O)c2ccccc2)c(-c2ccccc2C(F)(F)F)c1C(=O)NCCc1c[nH]c2ccccc12 | inconclusive [inhibitor, single point] | –
19 | CCN1CCc2c(sc(NC(=O)c3ccc(S(=O)(=O)N4CCOCC4)cc3)c2C(N)=O)C1 | inconclusive [inhibitor, single point] | –
20 | COc1cc(F)ccc1S(=O)(=O)n1c(C)nc2ccccc21 | inconclusive [inhibitor, partial curve] | –
21 | Cc1nc2ccc(S(=O)(=O)NCC(=O)N3CCN(c4ccccc4)CC3)cc2s1 | inconclusive [inhibitor, partial curve] | –
22 | CCc1ccccc1NC(=O)CSc1nc(-c2ccccc2OC)nc2c1Cc1c(CO)cnc(C)c1O2 | inconclusive [inhibitor, single point] | –
23 | COCCOC1CCN(C(=O)C2CCC(=O)N(CCc3ccccc3)C2)CC1 (configuration not stated) | inactive | –
24 | O=C(CN1c2cccc3cccc(c23)S1(=O)=O)N1CCCCC1 | inactive | –

Row | SMILES | Potency | activity change, negative = growth inhibition
25 | COc1ccc(C2=NN(C(=O)CN3CCCCC3)C(c3ccc(C)cc3)C2)cc1 (configuration not stated) | inconclusive [inhibitor, single point] | –
26 | CCOC(=O)CC1c2cc(OCC)c(OCC)cc2CCN1C(=O)Nc1cccc(Cl)c1 (configuration not stated) | active: 16.4 µM | –
27 | CC(C)c1ccc(NC2CCCN(C(=O)C3=NN(C)C(=O)CC3)C2)cc1 (configuration not stated) | inactive | –
28 | Cc1cc2ncn(C(=O)c3c(-c4ccccc4Cl)noc3C)c2cc1C | inactive | –
29 | Cc1cccn2c(=O)c3cc(C(=O)NCc4ccccc4)c(=N)n(CCOCCO)c3nc12 | active: 25.9 µM | –
30 | CC(C(=O)Nc1ccc(Cl)cc1Cl)N1C(=O)NC2(CCCCCCC2)C1=O (configuration not stated) | inconclusive [inhibitor, partial curve] | –
31 | CCN(CC)CCNc1c2c(c(C#N)c3nc4ccccc4n13)CCCC2 | inconclusive [inhibitor, single point] | –
32 | COc1ccc(CCN2CC(C(=O)NCCN3CCCC3=O)CCC2=O)cc1 (configuration not stated) | inactive | –
33 | COc1ccc(C2=NN(C(=O)CN3CCCCC3)C(c3ccc(OC)cc3)C2)cc1 (configuration not stated) | inconclusive [inhibitor, single point] | –
34 | O=C(COc1ccccc1)NCCSCc1ccccc1Cl | inactive | –
35 | CCOC(=O)c1[nH]c(C)c(CCC(=O)NCc2ccccc2Cl)c1C | inconclusive [inhibitor, single point] | –
36 | CNC(=O)c1ccc(Nc2nnc(-c3ccc(C)c(S(=O)(=O)N(C)C)c3)c3ccccc23)cc1 | inconclusive [inhibitor, partial curve] | –
37 | CN(C)c1nc(-c2ccccc2)c2cc(Cl)ccc2n1 | inconclusive [inhibitor, single point] | –
38 | COCCn1c(=O)[nH]c2cc(C(=O)NCCCN3CCN(c4ccc(F)cc4)CC3)ccc2c1=O | inconclusive [inhibitor, partial curve] | –
39 | Cc1ccc(CNc2nc(NC(C)C)nc3ccsc23)c(C)c1 | inconclusive [inhibitor, single point] | –
40 | CNC(=S)N/N=C/c1ccc(OCC(=O)Nc2c(C)cc(C)cc2C)c(OC)c1 | inconclusive [inhibitor, single point] | –
41 | CC(=O)Nc1ccc(-c2csc(NC(=O)C3CC(=O)N(c4ccc5c(c4)OCCO5)C3)n2)cc1 (configuration not stated) | active: 20.6 µM | –
42 | O=C(NCCc1ccccc1)C(=O)N/N=C/c1ccc2c(c1)OCO2 | active: 20.6 µM | –
43 | Cc1oc(-c2ccccc2Cl)nc1CN1CCCN(C(=O)c2ccco2)CC1 | inconclusive [inhibitor, single point] | –
44 | CCC(=O)Nc1ccc(-c2nnc3c4ccccc4c(C)nn23)cc1 | inconclusive [inhibitor, single point] | –
45 | O=C(NCc1ccccc1)c1ccc2c(c1)CCN2S(=O)(=O)c1ccccc1 | inconclusive [inhibitor, full curve, poor fit] | –
46 | CCC(C)Nc1ncnc2c1cnn2Cc1ccc(Cl)cc1 (configuration not stated) | inconclusive [inhibitor, single point] | –
47 | CCC(CC)NC(=O)c1cccc(Oc2ccccc2)c1 | inconclusive [inhibitor, single point] | –
48 | CCOC(=O)c1ccc(NC(=O)C2CCN(S(=O)(=O)CC)CC2)cc1 | inactive | –

Row | SMILES | Potency | activity change, negative = growth inhibition
49 | O=C(Nc1ccccc1)Nc1cccc(-c2nnco2)c1 | inconclusive [inhibitor, single point] | –
50 | CC(C)CC(=O)NC(=S)Nc1ccccc1C(F)(F)F | inconclusive [inhibitor, single point] | –
51 | CC1CN(S(=O)(=O)c2ccc(C(=O)N(C)C3CCCCC3)cc2)CC(C)O1 (configuration not stated) | inconclusive [inhibitor, single point] | –
52 | CC1Sc2ccc(C#N)cc2N(Cc2cccc(C(F)(F)F)c2)C1=O (configuration not stated) | inconclusive [inhibitor, single point] | –
53 | CCCCC(CC)CNC(=O)C1CCC(CNS(=O)(=O)c2cccc3nsnc23)CC1 (configuration not stated) | active: 20.6 µM | –
54 | Cc1ccc(CN(C)c2nc(-c3cccnc3)nc3ccccc23)o1 | active: 16.4 µM | –
55 | CCOc1cc(S(=O)(=O)NCCCN2CCOCC2)c(C)cc1C | inactive | –
56 | COc1cc2[nH]c(=S)n(CCN3CCCCC3C)c(=O)c2cc1OC (configuration not stated) | inactive | –
57 | O=C(CC1C(=O)OCCN1Cc1ccccc1)Nc1ccc(F)cc1 (configuration not stated) | inactive | –
58 | Nc1cc(=O)[nH]c(SCCSc2ccccc2)n1 | inconclusive [inhibitor, single point] | –
59 | COC(=O)c1sc2nc(C)nc(SCC(=O)Nc3sccc3C(N)=O)c2c1C | active: 16.4 µM | –
60 | NS(=O)(=O)c1ccc(CCNC(=O)NC2CCCCC2)cc1 | inactive | –
61 | O=S(=O)(c1ccc(-c2cn3ccccc3n2)cc1)N1CCOCC1 | – | inconclusive: -38.7% [inhibitor]
62 | CC(C)OCCCNC(=O)CN1C(=O)/C(=C/c2ccccc2F)Oc2ccccc21 | active: 10.3 µM | –
63 | COc1ccccc1N1CCN(C(=O)CSc2nc3ccccc3nc2N2CCC(C)CC2)CC1 | active: 23.1 µM | –
64 | Cc1nc2ccccc2n1CCOc1ccc([N+](=O)[O-])cc1 | inconclusive [inhibitor, single point] | –
65 | Cc1ccc(Sc2sc(=O)n(C)c2S(=O)(=O)c2ccc(C)cc2)cc1 | active: 20.6 µM | –
66 | CCCn1cnc2c(Sc3c([N+](=O)[O-])ncn3C)nc(N)nc21 | inconclusive [inhibitor, single point] | –
67 | Cc1cccc(C)c1-n1ncc(C(=O)N2CCN(c3ccccn3)CC2)c1C1CCN(C(=O)OC(C)(C)C)CC1 | active: 18.4 µM | –
68 | CCc1nc2c(OCc3ccc(C#N)cc3)cccn2c1N(C)C(=O)c1ccc(C)cc1 | active: 18.4 µM | –
69 | COc1cccc2sc(N3CCN(C(=O)c4ccco4)CC3)nc12 | inconclusive [inhibitor, single point] | –
70 | CCOC(=O)N/N=C\c1ccc(-c2cc(Cl)ccc2Cl)o1 | inactive | –
71 | OCCn1c(-c2ccccc2)csc1=Nc1ccccc1 | active: 16.4 µM | –
72 | COC(=O)c1sc(NC(=O)CC(C)C)c(C(=O)OC)c1C | inconclusive [inhibitor, single point] | –
